The list shows a part of the results. At the low end of the ranking, values are background and their order means little.
Each sequence was assayed against GST-SBP-SLBP (stem-loop binding protein) (UniProt Q14493) (assay: targeted RNA Bind-n-Seq). Details: RBNS binding buffer: 25 mM Tris pH 7.5, 150 mM KCl, 3 mM MgCl2, 0.1% Tween, 0.5 mg/mL BSA, 1 mM DTT; 27 nM protein, 750 pM RNA pool; temperature not stated; high values mean tight binding.
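Note: DESeq read counts versus GST-SBP nonspecific binding control pulldown.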

Row | Sequence | binding signal (log2 fold change)
1 | GGUCACGUCUCAAUCAACUCUUUUUCAGGAGUUUUCUCCUGUUUUGUCAACAGCUCGCAGUCAAG | -0.0971
2 | GGUCACGUCUCAAUCAACUCACUUGAGGGGGGGAAAACCCCUUUACCCUCUACAUCAACAGCUCGCAGUCAAG | -0.31
3 | GGUCACGUCUCAAUCAACUCUACUCCAGGAGUUUUCUCCUGUAAUGUCAACAGCUCGCAGUCAAG | 0.087
4 | GGUCACGUCUCAAUCAACUCUUUCUCCAGGGAAAACCCUGGCUUUCUCAACAGCUCGCAGUCAAG | 0.12
5 | GGUCACGUCUCAAUCAACUCUAAAGAGGGGGGGAAAACCCCUUUACCCUCCAUCUCAACAGCUCGCAGUCAAG | 0.188
6 | GGUCACGUCUCAAUCAACUCAUAAGAGGGGGGGAAAACCCCUUUACCCUCAUUUUCAACAGCUCGCAGUCAAG | -0.65
7 | GGUCACGUCUCAAUCAACUCAUCAGAGGGGGGGAAAACCCCUUUACCCUCAACUUCAACAGCUCGCAGUCAAG | 0.39
8 | GGUCACGUCUCAAUCAACUCACUAGAGGGGGGGAAAACCCCUUUGCCCUCAAUUUCAACAGCUCGCAGUCAAG | -0.182
9 | GGUCACGUCUCAAUCAACUCUUUAGAGGGGGGGAAAACCCCUUUACCCUCAACCUCAACAGCUCGCAGUCAAG | -0.0524
10 | GGUCACGUCUCAAUCAACUCUUUUUCAGGAGUUUACUCCUGUUAUUUCAACAGCUCGCAGUCAAG | 0.169
11 | GGUCACGUCUCAAUCAACUCCUAAGAGGGGGGGAAAACCCCUUUACCCUCAUACUCAACAGCUCGCAGUCAAG | 0.0238
12 | GGUCACGUCUCAAUCAACUCAACUUCAGGAGUUUACUCCUGUAAUUUCAACAGCUCGCAGUCAAG | 0.174
13 | GGUCACGUCUCAAUCAACUCAUUCUCAGGAGUUUUCUCCUGCAAUCUCAACAGCUCGCAGUCAAG | 0.0353
14 | GGUCACGUCUCAAUCAACUCUACUCCCAGGGAAAUCCCUGGUUUACUCAACAGCUCGCAGUCAAG | -0.282
15 | GGUCACGUCUCAAUCAACUCUAUAGAGGGGGGGAAAACCCCUUUACCCUCCACAUCAACAGCUCGCAGUCAAG | -0.0284
16 | GGUCACGUCUCAAUCAACUCUAUUCCAGGAGUUUCCUCCUGUUAACUCAACAGCUCGCAGUCAAG | 0.216
17 | GGUCACGUCUCAAUCAACUCUAUCCCCAGGGAAAACCCUGGCAUUCUCAACAGCUCGCAGUCAAG | -0.00304
18 | GGUCACGUCUCAAUCAACUCAUCUUCAGGAGUUUGCUCCUGUAUUCUCAACAGCUCGCAGUCAAG | 0.182

Row | Sequence | binding signal (log2 fold change)
19 | GGUCACGUCUCAAUCAACUCUUCUUCCAGGGAAAACCCUGGCAUAUUCAACAGCUCGCAGUCAAG | -0.0837
20 | GGUCACGUCUCAAUCAACUCAGUUCCCAGGGAAAUCCCUGGCAUAUUCAACAGCUCGCAGUCAAG | 0.0159
21 | GGUCACGUCUCAAUCAACUCACAAGAGGGGGGGAAAACCCCUUUGCCCUCCAAUUCAACAGCUCGCAGUCAAG | -0.246
22 | GGUCACGUCUCAAUCAACUCAUCAGAGGGGGGGAAAACCCCUUUGCCCUCAACAUCAACAGCUCGCAGUCAAG | -0.112
23 | GGUCACGUCUCAAUCAACUCAAAAGAGGGGGGGAAAACCCCUUUGCCCUCCACAUCAACAGCUCGCAGUCAAG | 0.0127
24 | GGUCACGUCUCAAUCAACUCUUUCCCCAGGGAAAACCCUGGUUAUCUCAACAGCUCGCAGUCAAG | 0.0662
25 | GGUCACGUCUCAAUCAACUCAACGCCAGGAGUUUACUCCUGCUAUUUCAACAGCUCGCAGUCAAG | 0.0465
26 | GGUCACGUCUCAAUCAACUCUUCCCCCAGGGAAACCCCUGGCAUACUCAACAGCUCGCAGUCAAG | -0.267
27 | GGUCACGUCUCAAUCAACUCUUUCUCCAGGGAAAUCCCUGGCAUACUCAACAGCUCGCAGUCAAG | -0.0648
28 | GGUCACGUCUCAAUCAACUCAAUAGAGGGGGGGAAAACCCCUUUGCCCUCCAAUUCAACAGCUCGCAGUCAAG | -0.189
29 | GGUCACGUCUCAAUCAACUCAGUCUCCAGGGAAAACCCUGGCUAUCUCAACAGCUCGCAGUCAAG | -0.256
30 | GGUCACGUCUCAAUCAACUCAAUCCCCAGGGAAAACCCUGGCUAUCUCAACAGCUCGCAGUCAAG | -0.138
31 | GGUCACGUCUCAAUCAACUCUAUCCCCAGGGAAAACCCUGGCAUUUUCAACAGCUCGCAGUCAAG | -0.127
32 | GGUCACGUCUCAAUCAACUCAUUCCCCAGGGAAAUCCCUGGCAAACUCAACAGCUCGCAGUCAAG | 0.202
33 | GGUCACGUCUCAAUCAACUCCAAAGAGGGGGGGAAAACCCCUUUGCCCUCAUUCUCAACAGCUCGCAGUCAAG | 0.342
34 | GGUCACGUCUCAAUCAACUCAUUUUCAGGAGUUUACUCCUGUUUUCUCAACAGCUCGCAGUCAAG | 0.0542
35 | GGUCACGUCUCAAUCAACUCUUCCCCCAGGGAAACCCCUGGCUAACUCAACAGCUCGCAGUCAAG | -0.0411
36 | GGUCACGUCUCAAUCAACUCAAGUCCCAGGGAAAUCCCUGGUAAAUUCAACAGCUCGCAGUCAAG | -0.0246
